Assay [1] concerns the target Flag-tagged Ran (control protein) (UniProt Q9VZ23). The assay is described as follows: co-IP; lysates of S2 cells expressing a Flag-tagged protein, immunoprecipitated with anti-Flag antibody; endogenous partners detected by immunoblotting; immunoprecipitates treated with or without RNase A (Fig 3A, 4D); lysis buffer 20 mM Tris-HCl pH 7.6, 150 mM NaCl, 2 mM EDTA, 10% glycerol, 1% Triton X-100, 1 mM DTT. In general terms: Immunoblotting shows a protein as a band on a membrane.

Protein sequences, listed by entry. Tags and fused reporters are not part of them.
UniProt Q9VU02: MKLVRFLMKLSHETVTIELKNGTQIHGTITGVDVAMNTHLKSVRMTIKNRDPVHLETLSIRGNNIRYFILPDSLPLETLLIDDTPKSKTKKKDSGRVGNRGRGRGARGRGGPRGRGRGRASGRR
UniProt Q24297: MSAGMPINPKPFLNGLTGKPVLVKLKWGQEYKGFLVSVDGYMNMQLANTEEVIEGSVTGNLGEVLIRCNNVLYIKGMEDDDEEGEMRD
UniProt Q05856: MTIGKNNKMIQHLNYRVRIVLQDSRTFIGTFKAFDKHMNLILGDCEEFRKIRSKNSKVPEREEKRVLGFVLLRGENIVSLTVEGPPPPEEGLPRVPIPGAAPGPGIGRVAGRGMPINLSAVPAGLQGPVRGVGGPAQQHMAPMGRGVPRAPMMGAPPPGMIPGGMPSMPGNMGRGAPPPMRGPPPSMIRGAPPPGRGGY
UniProt Q32KD4: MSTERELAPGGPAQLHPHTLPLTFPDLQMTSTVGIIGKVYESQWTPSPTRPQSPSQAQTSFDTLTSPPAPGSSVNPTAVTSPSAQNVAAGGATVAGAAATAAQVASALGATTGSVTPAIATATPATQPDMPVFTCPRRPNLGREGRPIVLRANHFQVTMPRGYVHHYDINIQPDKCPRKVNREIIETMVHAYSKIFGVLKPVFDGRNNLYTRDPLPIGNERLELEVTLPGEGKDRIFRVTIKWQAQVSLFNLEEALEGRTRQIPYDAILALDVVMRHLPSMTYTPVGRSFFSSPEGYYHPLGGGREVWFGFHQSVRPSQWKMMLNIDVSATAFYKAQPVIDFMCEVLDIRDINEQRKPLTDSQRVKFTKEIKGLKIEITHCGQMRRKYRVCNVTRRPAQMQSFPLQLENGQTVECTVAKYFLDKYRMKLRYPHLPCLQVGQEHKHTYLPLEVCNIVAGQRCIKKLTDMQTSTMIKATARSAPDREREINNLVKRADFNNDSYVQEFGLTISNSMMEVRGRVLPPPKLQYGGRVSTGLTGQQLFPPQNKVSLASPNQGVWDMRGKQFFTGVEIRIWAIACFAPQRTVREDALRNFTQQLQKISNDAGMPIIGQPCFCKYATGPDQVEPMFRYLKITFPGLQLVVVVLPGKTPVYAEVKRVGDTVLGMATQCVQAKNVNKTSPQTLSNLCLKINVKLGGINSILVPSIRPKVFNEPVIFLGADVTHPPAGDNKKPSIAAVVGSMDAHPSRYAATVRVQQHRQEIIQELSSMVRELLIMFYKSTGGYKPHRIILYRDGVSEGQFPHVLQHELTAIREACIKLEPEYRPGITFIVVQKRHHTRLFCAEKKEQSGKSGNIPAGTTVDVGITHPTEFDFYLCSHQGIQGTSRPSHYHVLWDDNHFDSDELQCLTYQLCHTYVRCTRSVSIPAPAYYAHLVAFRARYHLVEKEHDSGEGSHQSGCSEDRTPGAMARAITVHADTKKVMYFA

For assay [2], the target named is Flag-tagged SmD1 (Drosophila) (UniProt Q9VU02). The description is as above.
The target of assay [3] is Flag-tagged SmF (Drosophila) (UniProt Q24297). The assay is described as follows: co-IP; lysates of S2 cells co-expressing a Flag-tagged protein (SmD1, other Sm proteins or Ran) and T7-tagged Pasha (full length or truncated), immunoprecipitated with anti-Flag antibody; immunoblotting with anti-T7, anti-SmD1 and anti-Flag.
Assay [4] has as its target Flag-tagged SmD1 (Drosophila) (UniProt Q9VU02). The assay is described as above.
Assay [5] addresses Flag-tagged SmB (Drosophila) (UniProt Q05856). Described as above.
In assay [6] the target is Flag-tagged AGO1 (Drosophila) (UniProt Q32KD4). The assay is described as follows: co-IP; lysates of S2 cells expressing a Flag-tagged protein, immunoprecipitated with anti-Flag antibody; endogenous partners detected by immunoblotting; immunoprecipitates treated with or without RNase A (Fig 3A, 4D); lysis buffer 20 mM Tris-HCl pH 7.6, 150 mM NaCl, 2 mM EDTA, 10% glycerol, 1% Triton X-100, 1 mM DTT.

No constants are given. Whether binding was seen depends on the method and setting. In cells and extracts the contact can be indirect. Some binding calls cover weakened binding; strength is not graded here.

With “endogenous AGO1 (from UniProt Q32KD4 1-984)”, the binding entry in assay [1] is on record as “no binding”; in assay [2], “binds”.

In the case of “endogenous SmD1 (from UniProt Q9VU02 1-124)”, the binding entry in assay [3] is “binds”; in assay [4], “binds”; in assay [5], “binds”; in assay [1] it was “no binding”; in assay [6] it was “binds”.

The values above are taken from paper PMC4550278.
